# Test results as given in the supplement of paper PMC8728848.
# This is one part of the list.
# Key:
# Test in all cases: glycan array binding signal (z-score within array); higher = stronger binding
# Settings in all cases: glycan notation: IUPAC condensed, linker removed
# [1] = target: Fuc(a1-2)Gal(b1-4)GlcNAc(b1-3)Gal(b1-4)GlcNAc(b1-3)Gal(b1-4)GlcNAc
# How it was run: (§1)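 Negative Z-scores can be read as non-binding. The Z-score is calculated within each array and then averaged across arrays of one protein sequence at different concentrations or buffers and across linkers. Arrays, 3228 in all, were curated from the Consortium for Functional Glycomics database and kept only where the protein sequence was available.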
# [2] = target: Fuc(a1-2)Gal(b1-4)GlcNAc(b1-3)GalNAc
# How it was run: as §1
# [3] = target: Fuc(a1-2)Gal(b1-4)GlcNAc(b1-3)[Fuc(a1-2)Gal(b1-4)GlcNAc(b1-6)]GalNAc
# How it was run: as §1
# [4] = target: Fuc(a1-2)Gal(b1-4)GlcNAc(b1-3)[Fuc(a1-3)[Gal(b1-4)]GlcNAc(b1-6)]Gal(b1-4)Glc
# How it was run: as §1
# [5] = target: Fuc(a1-2)Gal(b1-4)GlcNAc(b1-6)GalNAc
# How it was run: as §1
# [6] = target: Fuc(a1-2)Gal(b1-4)GlcNAc6S
# How it was run: as §1
# [7] = target: Fuc(a1-2)Gal(b1-4)[Fuc(a1-3)]GlcNAc
# How it was run: as §1
# [8] = target: Fuc(a1-2)Gal(b1-4)[Fuc(a1-3)]GlcNAc(b1-2)Man(a1-3)[Fuc(a1-2)Gal(b1-4)[Fuc(a1-3)]GlcNAc(b1-2)Man(a1-6)]Man(b1-4)GlcNAc(b1-4)[Fuc(a1-6)]GlcNAc
# How it was run: as §1
# [9] = target: Fuc(a1-2)Gal(b1-4)[Fuc(a1-3)]GlcNAc(b1-2)[Fuc(a1-2)Gal(b1-4)[Fuc(a1-3)]GlcNAc(b1-4)]Man(a1-3)[Fuc(a1-2)Gal(b1-4)[Fuc(a1-3)]GlcNAc(b1-2)Man(a1-6)]Man(b1-4)GlcNAc(b1-4)GlcNAc
# How it was run: as §1
# [10] = target: Fuc(a1-2)Gal(b1-4)[Fuc(a1-3)]GlcNAc(b1-3)Gal(b1-4)[Fuc(a1-3)]GlcNAc
# How it was run: as §1
# [11] = target: Fuc(a1-2)Gal(b1-4)[Fuc(a1-3)]GlcNAc(b1-3)Gal(b1-4)[Fuc(a1-3)]GlcNAc(b1-3)Gal(b1-4)[Fuc(a1-3)]GlcNAc
# How it was run: as §1
# [12] = target: Fuc(a1-2)Gal(b1-4)[Fuc(a1-3)]GlcNAc(b1-3)GalNAc
# How it was run: as §1
# [13] = target: Fuc(a1-2)Gal(b1-4)[Fuc(a1-3)]GlcNAc(b1-3)[Neu5Ac(a2-6)Gal(b1-4)GlcNAc(b1-6)]Gal(b1-4)Glc
# How it was run: as §1
# [14] = target: Fuc(a1-2)Gal3S(b1-4)GlcNAc
# How it was run: as §1
# [15] = target: Fuc(a1-2)Gal6S(b1-3)GlcNAc
# How it was run: as §1
# [16] = target: Fuc(a1-2)Gal6S(b1-3)GlcNAc6S
# How it was run: as §1
# Fuc(a1-2)Gal6S(b1-4)Glc = target: Fuc(a1-2)Gal6S(b1-4)Glc
# How it was run: as §1
# [17] = target: Fuc(a1-2)Gal6S(b1-4)Glc6S
# How it was run: as §1
# Fuc(a1-2)[Gal(a1-3)]Gal = target: Fuc(a1-2)[Gal(a1-3)]Gal
# How it was run: as §1
# [18] = target: Fuc(a1-2)[Gal(a1-3)]Gal(b1-3)GalNAc
# How it was run: as §1
# [19] = target: Fuc(a1-2)[Gal(a1-3)]Gal(b1-3)GalNAc(b1-3)Gal(a1-4)Gal(b1-4)Glc
# How it was run: as §1
# [20] = target: Fuc(a1-2)[Gal(a1-3)]Gal(b1-3)GlcNAc
# How it was run: as §1
# [21] = target: Fuc(a1-2)[Gal(a1-3)]Gal(b1-3)GlcNAc(b1-2)Man(a1-3)[Fuc(a1-2)[Gal(a1-3)]Gal(b1-3)GlcNAc(b1-2)Man(a1-6)]Man(b1-4)GlcNAc(b1-4)GlcNAc
# How it was run: as §1
# [22] = target: Fuc(a1-2)[Gal(a1-3)]Gal(b1-3)GlcNAc(b1-2)Man(a1-3)[Fuc(a1-2)[Gal(a1-3)]Gal(b1-3)GlcNAc(b1-2)Man(a1-6)]Man(b1-4)GlcNAc(b1-4)[Fuc(a1-6)]GlcNAc
# How it was run: as §1
# [23] = target: Fuc(a1-2)[Gal(a1-3)]Gal(b1-3)GlcNAc(b1-3)GalNAc
# How it was run: as §1
# [24] = target: Fuc(a1-2)[Gal(a1-3)]Gal(b1-3)GlcNAc(b1-6)GalNAc
# How it was run: as §1
# [25] = target: Fuc(a1-2)[Gal(a1-3)]Gal(b1-4)Glc
# How it was run: as §1
# [26] = target: Fuc(a1-2)[Gal(a1-3)]Gal(b1-4)GlcNAc
# How it was run: as §1
# [27] = target: Fuc(a1-2)[Gal(a1-3)]Gal(b1-4)GlcNAc(b1-2)Man
# How it was run: as §1
# [28] = target: Fuc(a1-2)[Gal(a1-3)]Gal(b1-4)GlcNAc(b1-2)Man(a1-3)[Fuc(a1-2)[Gal(a1-3)]Gal(b1-4)GlcNAc(b1-2)Man(a1-6)]Man(b1-4)GlcNAc(b1-4)GlcNAc
# How it was run: as §1
# [29] = target: Fuc(a1-2)[Gal(a1-3)]Gal(b1-4)GlcNAc(b1-2)Man(a1-3)[Fuc(a1-2)[Gal(a1-3)]Gal(b1-4)GlcNAc(b1-2)Man(a1-6)]Man(b1-4)GlcNAc(b1-4)[Fuc(a1-6)]GlcNAc
# How it was run: as §1
# [30] = target: Fuc(a1-2)[Gal(a1-3)]Gal(b1-4)GlcNAc(b1-3)GalNAc
# How it was run: as §1
# [31] = target: Fuc(a1-2)[Gal(a1-3)]Gal(b1-4)GlcNAc(b1-3)[Fuc(a1-2)[Gal(a1-3)]Gal(b1-4)GlcNAc(b1-6)]GalNAc
# How it was run: as §1
# [32] = target: Fuc(a1-2)[Gal(a1-3)]Gal(b1-4)GlcNAc(b1-6)GalNAc
# How it was run: as §1
# [33] = target: Fuc(a1-2)[Gal(a1-3)]Gal(b1-4)[Fuc(a1-3)]Glc
# How it was run: as §1
# [34] = target: Fuc(a1-2)[Gal(a1-3)]Gal(b1-4)[Fuc(a1-3)]GlcNAc
# How it was run: as §1
# [35] = target: Fuc(a1-2)[Gal(a1-3)]Gal(b1-4)[Fuc(a1-3)]GlcNAc(b1-3)GalNAc
# How it was run: as §1
binder,measurement,setting,value
PX9937D-bvu-500-26-500 (Bacteroides vulgatus) (protein) DPVSDITDLNYWKTPEQFDSFVFGLHSRFRSHSWNMFLLGEARSDVFGGIPFGGEATQGMERFPYNTLNAENPGISGFGDLYQNINQMNLFISRTLHTDVLTESARNYYLGQVYGLRAYYMYQLYRSWGDVVFTEEPSLGFEVGKLAKAATPAAEIFEQVKKDIESSLSYFGSDYTIKEKKSLWSKAATLMLKADVYLWSAHRDGGEGDARTAKNALVDIQNNISRSNLDLMDTYQGVFAYDNKGNKEIIFTIHNELFEYNLWNGNNDLFPQADYLGKFYNADGTLINTSVENNFGIMRLMVKLENFKKFLPGDTRRDVTLKDVYNKVENGKLELVGVYPHKYWGVMNGSTRVRCDDYPIYRYSDLLLMLAEAKVLLGEDPATEINRVRRRAFGDAYDASTVGFPNQEVDKRPADAVLQERLFEFMLEGKRWYDLRRFGDSYVLDYTPAEPARLLWPINQGALTNNPLLKQTVGY,glycan array binding signal (z-score),[1],-0.492
same,glycan array binding signal (z-score),[2],-0.156
same,glycan array binding signal (z-score),[3],-0.387
same,glycan array binding signal (z-score),[4],-0.243
same,glycan array binding signal (z-score),[5],0.165
same,glycan array binding signal (z-score),[6],-0.12
same,glycan array binding signal (z-score),[7],-0.417
same,glycan array binding signal (z-score),[8],5.16
same,glycan array binding signal (z-score),[9],-0.075
same,glycan array binding signal (z-score),[10],-0.156
same,glycan array binding signal (z-score),[11],-0.184
same,glycan array binding signal (z-score),[12],1.16
same,glycan array binding signal (z-score),[13],0.012
same,glycan array binding signal (z-score),[14],-0.583
same,glycan array binding signal (z-score),[15],0.367
same,glycan array binding signal (z-score),[16],-0.19
same,glycan array binding signal (z-score),Fuc(a1-2)Gal6S(b1-4)Glc,0.013
same,glycan array binding signal (z-score),[17],0.207
same,glycan array binding signal (z-score),Fuc(a1-2)[Gal(a1-3)]Gal,0.336
same,glycan array binding signal (z-score),[18],-0.371
same,glycan array binding signal (z-score),[19],-0.344
same,glycan array binding signal (z-score),[20],-0.161
same,glycan array binding signal (z-score),[21],0.05
same,glycan array binding signal (z-score),[22],0.209
same,glycan array binding signal (z-score),[23],-0.226
same,glycan array binding signal (z-score),[24],-0.109
same,glycan array binding signal (z-score),[25],-0.284
same,glycan array binding signal (z-score),[26],-0.101
same,glycan array binding signal (z-score),[27],-0.482
same,glycan array binding signal (z-score),[28],-0.348
same,glycan array binding signal (z-score),[29],-0.298
same,glycan array binding signal (z-score),[30],0.162
same,glycan array binding signal (z-score),[31],0.021
same,glycan array binding signal (z-score),[32],-0.145
same,glycan array binding signal (z-score),[33],0.301
same,glycan array binding signal (z-score),[34],-0.096
same,glycan array binding signal (z-score),[35],0.028
